Measured values: paper PMC4336329 (PLoS ONE, 2015)
Hit rate of the full screen: of about 310,000 compounds, about 2,200 (0.71%) showed an effect of 50% or more. The effect is printed as a negative number. The list shows a part of the results.

molecular target: human ether-à-go-go-related gene (hERG) potassium channel (human, UniProt Q12809); experiment: primary screen, population patch clamp on CHO cells stably expressing hERG
Sequence (Q12809 whole entry, looked up): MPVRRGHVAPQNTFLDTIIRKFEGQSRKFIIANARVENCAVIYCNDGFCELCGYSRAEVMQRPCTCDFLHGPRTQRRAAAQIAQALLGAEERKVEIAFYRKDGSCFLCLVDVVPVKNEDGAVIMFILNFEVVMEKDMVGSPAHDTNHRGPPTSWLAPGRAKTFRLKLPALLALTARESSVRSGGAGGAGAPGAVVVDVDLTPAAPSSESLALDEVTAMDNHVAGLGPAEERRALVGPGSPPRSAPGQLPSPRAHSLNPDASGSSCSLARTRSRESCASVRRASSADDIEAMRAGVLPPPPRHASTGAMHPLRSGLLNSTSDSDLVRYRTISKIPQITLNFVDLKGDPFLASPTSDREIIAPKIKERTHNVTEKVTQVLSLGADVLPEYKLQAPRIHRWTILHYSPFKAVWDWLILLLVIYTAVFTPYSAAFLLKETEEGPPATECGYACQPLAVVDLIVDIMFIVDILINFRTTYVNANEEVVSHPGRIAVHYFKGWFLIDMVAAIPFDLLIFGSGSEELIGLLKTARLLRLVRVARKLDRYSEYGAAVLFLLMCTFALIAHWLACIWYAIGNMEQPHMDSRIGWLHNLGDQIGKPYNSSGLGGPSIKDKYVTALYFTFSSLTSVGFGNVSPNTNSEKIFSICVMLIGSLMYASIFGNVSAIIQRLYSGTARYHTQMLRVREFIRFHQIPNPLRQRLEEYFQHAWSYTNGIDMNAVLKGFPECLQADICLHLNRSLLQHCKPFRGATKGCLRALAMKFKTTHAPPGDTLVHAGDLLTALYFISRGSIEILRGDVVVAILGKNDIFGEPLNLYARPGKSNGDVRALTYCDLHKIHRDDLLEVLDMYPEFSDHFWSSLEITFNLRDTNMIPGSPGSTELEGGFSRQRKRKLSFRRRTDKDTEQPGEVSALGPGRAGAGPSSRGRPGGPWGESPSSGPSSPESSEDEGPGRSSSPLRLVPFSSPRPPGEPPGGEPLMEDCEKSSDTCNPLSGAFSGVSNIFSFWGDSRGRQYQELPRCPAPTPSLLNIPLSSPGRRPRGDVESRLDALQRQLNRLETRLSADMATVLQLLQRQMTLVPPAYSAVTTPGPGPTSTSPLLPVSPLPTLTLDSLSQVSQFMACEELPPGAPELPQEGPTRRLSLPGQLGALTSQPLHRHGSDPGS

Row | SMILES | hERG current change (%, negative = inhibition) at 1uM [%]
1 | COc1ccc([C@H]2/C=C\CN(C(=O)CC(C)(C)C)[C@@H](C)C(=O)N2Cc2ccc(F)cc2)cc1 | 11.1
2 | Cc1cc(NC(=O)CN2C(=O)NC3(CCCCCC3)C2=O)no1 | 4.04
3 | Nc1c(NCCCN2CCOCC2)c2ccccc2oc1=O | 7.65
4 | Cc1ccc(C2=Nn3c(COc4ccc(Cl)cc4)nnc3SC2CC(=O)O)cc1 (stereo not drawn) | 7.29
5 | Cc1[nH]c2ccccc2c1C(C[N+](=O)[O-])c1cccc(O)c1 (stereo not drawn) | 11.8
6 | O=C(c1cc(S(=O)(=O)N2CCC3(CC2)OCCO3)ccc1F)N1CCC2(CC1)OCCO2 | -4.21
7 | CCOc1ccc(NC(=S)Nc2ccc(OCc3ccccc3)cc2)cc1 | 6.56
8 | O=C1/C(=C/c2ccccc2)SC(=S)N1CC(=O)N1CCCCC1c1cccnc1 (stereo not drawn) | 8.82
9 | CCC(/C=C1\Sc2ccc(OC)cc2N1CCO)=C\c1sc2ccc(OC)cc2[n+]1CCO.[Cl-] | -5.4
10 | O=C(N/N=C/c1ccccn1)c1ccc(N/N=C/c2ccccn2)cc1.O=S(=O)(O)O | 21.4
11 | Cc1cc(C)c(S(=O)(=O)c2ccccc2)c(N(C)C)n1 | 12.2
12 | Cc1cc(C)cc(NC(=O)C2CCCN2S(=O)(=O)c2cccc3cccnc23)c1 (stereo not drawn) | -0.644
13 | COc1ccc(C(=O)N2CCC(C(=O)c3ccc(F)cc3)CC2)cc1 | -66.1
14 | CCOc1ccccc1NC(=O)CSc1nnc(-c2ccccn2)n1Cc1ccco1 | -4.82
15 | O=C(N/N=C/c1cccs1)/C(=C/c1ccccc1)NC(=O)c1ccccc1 | 4.29
16 | CN(C)C(=O)CSc1nnc(CCN)o1.Cl | 0.24
17 | COc1ccc(S(=O)(=O)NCC(c2ccco2)N2CCOCC2)cc1 (stereo not drawn) | -8.75
18 | O=C1Cc2ccccc2C(=O)N1Cc1ccccc1 | 7.56
19 | O=C(CSc1ncccn1)Nc1ccc(N2CCOCC2)cc1 | 6.92
20 | Cn1c(C(=O)N2CCC(C(=O)N3CCN(Cc4ccc5c(c4)OCO5)CC3)CC2)cc2sccc21 | -3.6
21 | COc1ccc(NC(=O)c2sc3ncn(CC(=O)N4CCCCC4)c(=O)c3c2C)cc1OC | 17.6
22 | CC(C)NC(=O)COc1coc(CN2CCN(c3ccccc3)CC2)cc1=O | 10
23 | COc1cc(Cl)ccc1OCc1cc(C(=O)N2CCCC(OC)C2)no1 (stereo not drawn) | 8.17
24 | CN(CCN1CCOCC1)C(=O)c1cc(COc2ccc(F)c(F)c2)on1 | 8.85
25 | O=C(/C=C/c1ccccc1)Nn1cnc2ccccc2c1=O | -1.46
26 | CC(C)C[C@H](NC(=O)N1CCn2c1nc1ccccc12)C(=O)NC1CCCCC1 | 11.7
27 | O=[N+]([O-])c1cn(Cc2ccc(Cl)cc2)cn1 | 10.8

Row | SMILES | hERG current change (%, negative = inhibition) at 1uM [%]
28 | Cc1ccc2nc(Cl)c(/C=N/NC(=O)[C@H]3C[C@@H]3c3ccccc3)cc2c1 | 12.6
29 | CCn1c(SCC(=O)c2[nH]c(C)c(C(C)=O)c2C)nnc1-c1ccncc1 | 0.209
30 | CC(C)(C)C1C/C(=C/c2ccccn2)C(=O)/C(=C/c2ccccn2)C1 (stereo not drawn) | 1.84
31 | CCOC(=O)c1sc(=S)n(-c2ccccc2)c1SC | 6.27
32 | COc1cc2c(cc1OC)-c1cc(Nc3ccc(N(C)C)cc3)nc(=O)n1CC2 | 16.8
33 | Nn1c(SCC(=O)Nc2nccs2)nnc1-c1ccccn1 | 10.3
34 | CC1(c2ccccc2Cl)NC(=O)N(CC(=O)N2c3ccccc3NC(=O)C2(C)C)C1=O (stereo not drawn) | 0.853
35 | CCOC(=O)CSc1nsc(SCC(=O)OCC)c1C#N | 15.7
36 | CC(/C=N/NC(=O)c1ccncc1)=C\c1ccc(C(C)C)cc1 | -0.974
37 | CSc1ccccc1NC(=O)CN(Cc1ccccc1)S(C)(=O)=O | 12.1
38 | COc1ccc(S(=O)(=O)Nc2cccnc2)cc1 | 13.6
39 | CN(CCCC(=O)Nc1ccc(Br)cc1F)S(=O)(=O)c1ccccc1 | 6.06
40 | CCCCCCSc1ccc([C@H]2N[C@@](C)(C(=O)OC)[C@H]3C(=O)N(CC)C(=O)[C@@H]23)cc1.O=C(O)C(F)(F)F | -4.34
41 | COc1ccc(CCNC(=O)c2cc3c(=O)n4ccccc4nc3n(C3CCCCC3)c2=N)cc1 | -67.6
42 | O=C(O)CC(C(=O)Nc1ccc(Cl)cc1)N1CCCCCC1 (stereo not drawn) | 17.1
43 | CCOc1ccc(C(=O)NCC(=O)NNC(=O)CN(C)S(=O)(=O)c2ccc(Cl)cc2)cc1 | 18.3
44 | CC(C)Oc1ccc(S(=O)(=O)N2CCCCC2)cc1NC(=O)C1CCCC1 | 5.7
45 | O=C(CCC1CCCN(C(=O)c2ccc3c(c2)OCO3)C1)NCc1ccc(F)c(F)c1 (stereo not drawn) | 6.93
46 | O=C(Nc1nnc(C2CC2)s1)C1CC(=O)N(c2ccc3c(c2)OCCO3)C1 (stereo not drawn) | 5.14
47 | OC[C@H]1O[C@H](OC[C@H]2OC(O)[C@H](O)[C@@H](O)[C@@H]2O)[C@H](O)[C@@H](O)[C@@H]1O (stereo partly drawn) | 16.9
48 | O=C(COC(=O)c1ccccn1)NCc1ccccc1 | 5.09
49 | Cn1c(CNC(=O)c2ccco2)nnc1SCC(=O)Nc1cccc(F)c1 | 12.2
50 | CC(C)(SC(=S)N1CCOCC1)C(=O)O | 9.22
51 | CCOc1ccc(NC(=O)CN(C)C(=O)CCc2ccccc2Cl)cc1OCC | -2.56
52 | C=C(C)CSc1nc2c(c(=O)[nH]c(=O)n2C)n1Cc1ccccc1 | 3.66
53 | O=C(Nc1cccnc1)C1=NN(C2CCS(=O)(=O)C2)C(=O)CC1 (stereo not drawn) | 18.7
54 | COc1ccccc1/C=C1/C(=O)ON=C1C | 9.9
